Measurements from paper PMC9911399, “Two distinct binding modes provide the RNA-binding protein RbFox with extraordinary sequence specificity”.
Changes are numbered by the printed parent chain; changes in the protein carry UniProt numbers. The list shows a part of the results.

T1: RBFOX1 RRM RbFoxmut (Fox-RRM*) (Homo sapiens, UniProt Q9NWB1 109-208, R118D;E147R;N151S;E152T)
T1 sequence: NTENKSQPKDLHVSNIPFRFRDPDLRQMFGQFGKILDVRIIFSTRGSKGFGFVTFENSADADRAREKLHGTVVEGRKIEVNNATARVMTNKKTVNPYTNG

B1: CCCCCAG (DNA:RNA)
RNA: GGGAGACCGGAAUUCAGAUUGUCCCCCCCAGUUAAAUCCCGUCGUAGCCACCA
DNA 1: CAATCTGAATTCCGGTCTCCC
DNA 2: TGGTGGCTACGACGGGATT
B2: AGCCUCC (DNA:RNA)
RNA: B1 RNA with C25A, C26G, C29U, A30C, G31C
DNA 1: CAATCTGAATTCCGGTCTCCC
DNA 2: TGGTGGCTACGACGGGATT
B3: GGCUACC (DNA:RNA)
RNA: B1 RNA with C25G, C26G, C28U, C29A, A30C, G31C
DNA 1: CAATCTGAATTCCGGTCTCCC
DNA 2: TGGTGGCTACGACGGGATT
B4: ACUAAAC (DNA:RNA)
RNA: B1 RNA with C25A, C27U, C28A, C29A, G31C
DNA 1: CAATCTGAATTCCGGTCTCCC
DNA 2: TGGTGGCTACGACGGGATT
B5: UUUAGAG (DNA:RNA)
RNA: B1 RNA with C25U, C26U, C27U, C28A, C29G
DNA 1: CAATCTGAATTCCGGTCTCCC
DNA 2: TGGTGGCTACGACGGGATT
B6: AGGUUGG (DNA:RNA)
RNA: B1 RNA with C25A, C26G, C27G, C28U, C29U, A30G
DNA 1: CAATCTGAATTCCGGTCTCCC
DNA 2: TGGTGGCTACGACGGGATT
B7: UUUUUUA (DNA:RNA)
RNA: GGGAGACCGGAAUUCAGAUUGUCCUUUUUUAUUAAAUCCCGUCGUAGCCACCA
DNA 1: CAATCTGAATTCCGGTCTCCC
DNA 2: TGGTGGCTACGACGGGATT
B8: AGAAGUC (DNA:RNA)
RNA: B7 RNA with U25A, U26G, U27A, U28A, U29G, A31C
DNA 1: CAATCTGAATTCCGGTCTCCC
DNA 2: TGGTGGCTACGACGGGATT
B9: UACGUAU (DNA:RNA)
RNA: B1 RNA with C25U, C26A, C28G, C29U, G31U
DNA 1: CAATCTGAATTCCGGTCTCCC
DNA 2: TGGTGGCTACGACGGGATT
B10: GAUUCAU (DNA:RNA)
RNA: B1 RNA with C25G, C26A, C27U, C28U, G31U
DNA 1: CAATCTGAATTCCGGTCTCCC
DNA 2: TGGTGGCTACGACGGGATT
B11: CCUACUA (DNA:RNA)
RNA: B1 RNA with C27U, C28A, A30U, G31A
DNA 1: CAATCTGAATTCCGGTCTCCC
DNA 2: TGGTGGCTACGACGGGATT
B12: CGAACUC (DNA:RNA)
RNA: B1 RNA with C26G, C27A, C28A, A30U, G31C
DNA 1: CAATCTGAATTCCGGTCTCCC
DNA 2: TGGTGGCTACGACGGGATT
B13: UGAAGGA (DNA:RNA)
RNA: B7 RNA with U26G, U27A, U28A, U29G, U30G
DNA 1: CAATCTGAATTCCGGTCTCCC
DNA 2: TGGTGGCTACGACGGGATT
B14: GCGUCAG (DNA:RNA)
RNA: B1 RNA with C25G, C27G, C28U
DNA 1: CAATCTGAATTCCGGTCTCCC
DNA 2: TGGTGGCTACGACGGGATT
B15: GGAUCUA (DNA:RNA)
RNA: B7 RNA with U25G, U26G, U27A, U29C
DNA 1: CAATCTGAATTCCGGTCTCCC
DNA 2: TGGTGGCTACGACGGGATT
B16: GGCAGCU (DNA:RNA)
RNA: B1 RNA with C25G, C26G, C28A, C29G, A30C, G31U
DNA 1: CAATCTGAATTCCGGTCTCCC
DNA 2: TGGTGGCTACGACGGGATT
B17: AUGUCGU (DNA:RNA)
RNA: B7 RNA with U25A, U27G, U29C, U30G, A31U
DNA 1: CAATCTGAATTCCGGTCTCCC
DNA 2: TGGTGGCTACGACGGGATT
B18: GGUGCAU (DNA:RNA)
RNA: B1 RNA with C25G, C26G, C27U, C28G, G31U
DNA 1: CAATCTGAATTCCGGTCTCCC
DNA 2: TGGTGGCTACGACGGGATT
B19: CAGGGAU (DNA:RNA)
RNA: B1 RNA with C26A, C27G, C28G, C29G, G31U
DNA 1: CAATCTGAATTCCGGTCTCCC
DNA 2: TGGTGGCTACGACGGGATT
B20: CUAUACC (DNA:RNA)
RNA: B7 RNA with U25C, U27A, U29A, U30C, A31C
DNA 1: CAATCTGAATTCCGGTCTCCC
DNA 2: TGGTGGCTACGACGGGATT
B21: UUAAUGU (DNA:RNA)
RNA: B7 RNA with U27A, U28A, U30G, A31U
DNA 1: CAATCTGAATTCCGGTCTCCC
DNA 2: TGGTGGCTACGACGGGATT
B22: AAUGCGG (DNA:RNA)
RNA: B1 RNA with C25A, C26A, C27U, C28G, A30G
DNA 1: CAATCTGAATTCCGGTCTCCC
DNA 2: TGGTGGCTACGACGGGATT
B23: UUCGUUC (DNA:RNA)
RNA: B7 RNA with U27C, U28G, A31C
DNA 1: CAATCTGAATTCCGGTCTCCC
DNA 2: TGGTGGCTACGACGGGATT
B24: CAUUAAC (DNA:RNA)
RNA: B1 RNA with C26A, C27U, C28U, C29A, G31C
DNA 1: CAATCTGAATTCCGGTCTCCC
DNA 2: TGGTGGCTACGACGGGATT
B25: GGACUGA (DNA:RNA)
RNA: B7 RNA with U25G, U26G, U27A, U28C, U30G
DNA 1: CAATCTGAATTCCGGTCTCCC
DNA 2: TGGTGGCTACGACGGGATT
B26: GUUCCAA (DNA:RNA)
RNA: B1 RNA with C25G, C26U, C27U, G31A
DNA 1: CAATCTGAATTCCGGTCTCCC
DNA 2: TGGTGGCTACGACGGGATT
B27: CGCUGGA (DNA:RNA)
RNA: B1 RNA with C26G, C28U, C29G, A30G, G31A
DNA 1: CAATCTGAATTCCGGTCTCCC
DNA 2: TGGTGGCTACGACGGGATT
B28: CCACCGA (DNA:RNA)
RNA: B1 RNA with C27A, A30G, G31A
DNA 1: CAATCTGAATTCCGGTCTCCC
DNA 2: TGGTGGCTACGACGGGATT
B29: UGAGGAC (DNA:RNA)
RNA: B1 RNA with C25U, C26G, C27A, C28G, C29G, G31C
DNA 1: CAATCTGAATTCCGGTCTCCC
DNA 2: TGGTGGCTACGACGGGATT
B30: UACCCUU (DNA:RNA)
RNA: B1 RNA with C25U, C26A, A30U, G31U
DNA 1: CAATCTGAATTCCGGTCTCCC
DNA 2: TGGTGGCTACGACGGGATT
B31: GUAACUG (DNA:RNA)
RNA: B1 RNA with C25G, C26U, C27A, C28A, A30U
DNA 1: CAATCTGAATTCCGGTCTCCC
DNA 2: TGGTGGCTACGACGGGATT

Each binder was assayed against T1, RBFOX1 RRM RbFoxmut (Fox-RRM*) (assay: EMSA; HiTS-Eq, 1 nM pool, 10 min; buffer printed only for the single-RNA assays: 10 mM Tris pH 7.5, 150 mM NaCl, 3.4 mM EDTA, 0.001% NP-40, 30 C). Settings: tags: His6 N-terminal (pET28a); label: 5' 32P.
How it was run: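 Purified wild-type or mutant RbFox RRM at increasing concentrations was equilibrated with 1 nM of 5′-radiolabelled RNA carrying 7 randomized nucleotides for 10 min in 50 µL. Unbound RNA was separated by 8% native PAGE and sequenced. Relative association constants came from read-count changes of each RNA species compared with the control reaction, normalised to the cognate motif.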
In the case of B1, the binding signal is reported as 0.0948 KA relative to UGCAUGU.
In the case of B2, the binding signal is reported as 0.0559 KA relative to UGCAUGU.
For B3, the binding signal was 0.115 KA relative to UGCAUGU.
With B4 the binding signal was 0.0844 KA relative to UGCAUGU.
B5 was tested, and the binding signal was 0.131 KA relative to UGCAUGU.
For B6, the binding signal was 0.179 KA relative to UGCAUGU.
For B7, the binding signal was 0.116 KA relative to UGCAUGU.
B8 was tested, and the binding signal was 0.0557 KA relative to UGCAUGU.
B9 was tested, and the binding signal was 0.103 KA relative to UGCAUGU.
For B10, the binding signal was 0.123 KA relative to UGCAUGU.
With B11 the binding signal was 0.108 KA relative to UGCAUGU.
B12 was tested, and the binding signal was 0.0793 KA relative to UGCAUGU.
For B13, the binding signal was 0.0654 KA relative to UGCAUGU.
B14 was tested, and the binding signal was 0.101 KA relative to UGCAUGU.
For B15, the binding signal was 0.154 KA relative to UGCAUGU.
In the case of B16, the binding signal is reported as 0.0642 KA relative to UGCAUGU.
With B17 the binding signal was 0.137 KA relative to UGCAUGU.
In the case of B18, the binding signal is reported as 0.107 KA relative to UGCAUGU.
For B19, the binding signal was 0.0936 KA relative to UGCAUGU.
In the case of B20, the binding signal is reported as 0.0929 KA relative to UGCAUGU.
B21 was tested, and the binding signal was 0.139 KA relative to UGCAUGU.
For B22, the binding signal was 0.0885 KA relative to UGCAUGU.
For B23, the binding signal was 0.0829 KA relative to UGCAUGU.
B24 was tested, and the binding signal was 0.113 KA relative to UGCAUGU.
In the case of B25, the binding signal is reported as 0.258 KA relative to UGCAUGU.
In the case of B26, the binding signal is reported as 0.0788 KA relative to UGCAUGU.
For B27, the binding signal was 0.0839 KA relative to UGCAUGU.
In the case of B28, the binding signal is reported as 0.078 KA relative to UGCAUGU.
For B29, the binding signal was 0.0659 KA relative to UGCAUGU.
For B30, the binding signal was 0.0744 KA relative to UGCAUGU.
For B31, the binding signal was 0.0807 KA relative to UGCAUGU.
